Laboratory results reported in the supplement of paper PMC9174493.
Structures can show the parent of a compound that is named as a salt. Some of the results follow. Single values of this set are uncertain. Values with irradiation are relative to irradiated vehicle.
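Note: viability correction based on the alamar blue assay, with concentrations leaving 10% survival or less dropped.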

Each compound was assayed on A549-Dual (assay: NF-kB reporter (SEAP) activity, viability-corrected, relative to vehicle (fold change vs vehicle); higher = more activation of STING-IRF / NF-kB immune response reporter). Conditions: 0.3 µM; irradiation: 8 Gy/4 fr.
With `Cc1ccc(S(=O)(=O)O)cc1.NC(=O)c1cccc2cn(-c3ccc(C4CCCNC4)cc3)nc12` (stereo not drawn) [Niraparib (MK-4827) tosylate] the NF-kB reporter was 0.809.
With `CC(C)OC(=O)CCC/C=C\CC1C(O)CC(O)C1CCC(O)CCc1ccccc1` (stereo not drawn) [Latanoprost] the NF-kB reporter was 0.56.
For `O=c1[nH]cc(F)c(=O)[nH]1` [Fluorouracil (5-Fluoracil, 5-FU)], the NF-kB reporter was 1.54.
In the case of `CC1(C(=O)O)CCC2(C)CCC3(C)C(=CC(=O)C4C5(C)CCC(OC6OC(C(=O)O)C(O)C(O)C6OC6OC(C(=O)O)C(O)C(O)C6O)C(C)(C)C5CCC43C)C2C1.N.N` (stereo not drawn) [Diammonium Glycyrrhizinate], the NF-kB reporter is reported as 1.21.
In the case of `CC1(C)CCC(CN2CCN(c3ccc(C(=O)NS(=O)(=O)c4ccc(NCC5CCOCC5)c([N+](=O)[O-])c4)c(Oc4cnc5[nH]ccc5c4)c3)CC2)=C(c2ccc(Cl)cc2)C1` [Venetoclax (ABT-199, GDC-0199)], the NF-kB reporter is reported as 0.782.
Work on `CCN(CC)Cc1cc(Nc2ccnc3cc(Cl)ccc23)ccc1O.Cl.Cl` [Amodiaquine hydrochloride] yielded an NF-kB reporter of 1.03.
`CCN(C(=O)c1c(O)c2c(Cl)cccc2n(C)c1=O)c1ccccc1` [Laquinimod] gave an NF-kB reporter of 1.24.
For `O=C(c1ccc(OCCN2CCCCC2)cc1)c1c(-c2ccc(O)cc2)sc2cc(O)ccc12` [Raloxifene], the NF-kB reporter was 0.996.

Same assay, conditions: 0.3 µM; irradiation: none
`CCC(=O)OCC(=O)C1(OC(=O)CC)C(C)CC2C3CCC4=CC(=O)C=CC4(C)C3(Cl)C(O)CC21C` (stereo not drawn) [Beclomethasone dipropionate] was tested, and the NF-kB reporter was 0.979.
Work on `CC(=O)Nc1ccc(OC(=O)c2ccccc2OC(C)=O)cc1` [Benorylate] yielded an NF-kB reporter of 0.73.
Compound `Nc1ccccc1NC(=O)c1ccc(CNC(=O)OCc2cccnc2)cc1` [Entinostat (MS-275)] has an NF-kB reporter of 1.32.
`COc1cc(N2CCC(N3CCN(C)CC3)CC2)ccc1Nc1ncc(Cl)c(Nc2ccccc2P(C)(C)=O)n1` gave an NF-kB reporter of 0.773.
In the case of `Cc1c(-c2ccc(-c3ccccc3F)cc2)nc2ccc(F)cc2c1C(=O)O` [Brequinar], the NF-kB reporter is reported as 0.958.
Compound `CCC1/C=C(\C)CC(C)CC(OC)C2OC(O)(C(=O)C(=O)N3CCCCC3C(=O)OC(/C(C)=C/C3CCC(Cl)C(OC)C3)C(C)C(O)CC1=O)C(C)CC2OC` (stereo not drawn) [Pimecrolimus] has an NF-kB reporter of 1.29.
`COC(=O)/C=C/C(=O)OC` [Dimethyl Fumarate] showed an NF-kB reporter of 0.609.
With `Cc1cc(Nc2ncc(Cl)c(Nc3ccccc3S(=O)(=O)C(C)C)n2)c(OC(C)C)cc1C1CCNCC1` [Ceritinib (LDK378)] the NF-kB reporter was 0.931.
`Nc1nc(Cl)nc2c1ncn2C1CC(O)C(CO)O1` (stereo not drawn) [Cladribine] showed an NF-kB reporter of 0.869.
For `CC12CCC(=O)C=C1CCC1C2C(O)CC2(C)C1CCC2(O)C(=O)CO` (stereo not drawn) [Hydrocortisone], the NF-kB reporter was 1.89.
`Cc1coc2c1C(=O)C(=O)c1c-2ccc2c(C)cccc12` [Tanshinone I] gave an NF-kB reporter of 1.36.
With `Cn1cnc([N+](=O)[O-])c1Sc1ncnc2nc[nH]c12` [Azathioprine] the NF-kB reporter was 1.42.
Work on `O=c1ccc2cc3ccoc3cc2o1` [Psoralen] yielded an NF-kB reporter of 0.653.
For `CCC(=O)NS(=O)(=O)c1ccc(-c2c(-c3ccccc3)noc2C)cc1` [Parecoxib], the NF-kB reporter was 0.98.
For `COc1ccc(-c2ccc3cc(C(=O)O)ccc3c2)cc1C12CC3CC(CC(C3)C1)C2` [Adapalene], the NF-kB reporter was 1.35.
`CCC(C(=O)O)c1ccc(N2Cc3ccccc3C2=O)cc1` (stereo not drawn) [Indobufen] was tested, and the NF-kB reporter was 0.769.
In the case of `COC1CC2CCC(C)C(O)(O2)C(=O)C(=O)N2CCCCC2C(=O)OC(C(C)CC2CCC(O)C(OC)C2)CC(=O)C(C)/C=C(\C)C(O)C(OC)C(=O)C(C)CC(C)/C=C/C=C/C=C/1C` (stereo not drawn) [Rapamycin (Sirolimus)], the NF-kB reporter is reported as 1.37.
For `COc1ccc(C2CNC(=O)C2)cc1OC1CCCC1` (stereo not drawn) [Rolipram], the NF-kB reporter was 1.11.
With `Nc1nc(N)c2nc(-c3ccccc3)c(N)nc2n1` [Triamterene] the NF-kB reporter was 0.903.
Compound `CN(C)CCN1C(=O)c2cccc3cc(N)cc(c23)C1=O` [Amonafide] has an NF-kB reporter of 1.27.
For `CN1CCCC1CCOC(C)(c1ccccc1)c1ccc(Cl)cc1.O=C(O)/C=C/C(=O)O` (stereo not drawn) [Clemastine Fumarate], the NF-kB reporter was 1.22.
With `CC12C=CC(=O)C=C1CCC1C3CC(O)C(O)(C(=O)CO)C3(C)CC(O)C12F` (stereo not drawn) [Triamcinolone] the NF-kB reporter was 1.27.
`CC1CC2C3CCC4=CC(=O)C=CC4(C)C3C(=O)CC2(C)C1(O)C(=O)CO` (stereo not drawn) [Meprednisone] was tested, and the NF-kB reporter was 1.48.
`CCS(=O)(=O)O.COC(=O)c1ccc2c(c1)NC(=O)/C2=C(\Nc1ccc(N(C)C(=O)CN2CCN(C)CC2)cc1)c1ccccc1` [Nintedanib Ethanesulfonate Salt] gave an NF-kB reporter of 1.05.
`CCCCCCCCCCCCCCCCCCOP(=O)([O-])OC1CC[N+](C)(C)CC1` [Perifosine (KRX-0401)] was tested, and the NF-kB reporter was 1.16.
For `CCC1(O)CC2CN(CCc3c([nH]c4ccccc34)C(C(=O)OC)(c3cc4c(cc3OC)N(C=O)C3C(O)(C(=O)OC)C(OC(C)=O)C5(CC)C=CCN6CCC43C65)C2)C1` (stereo not drawn) [Vincristine], the NF-kB reporter was 2.32.
`Cl.Nc1ccn(C2OC(CO)C(O)C2O)c(=O)n1` (stereo not drawn) [Cytarabine hydrochloride] gave an NF-kB reporter of 1.11.
Compound `CC(=O)OC(C)C(C)C(=O)OCC12C3CC4(C)C(=CCC5C6(C)CCC(OC7OC(C(=O)[O][Na])C(OC8OC(CO)C(O)C(O)C8O)C(O)C7OC7OCC(O)C(O)C7O)C(C)(CO)C6CCC54C)C1CC(C)(C)C(O3)C2O` (stereo not drawn) [Sodium Aescinate] has an NF-kB reporter of 1.2.
`CCC(=O)OC1(C(=O)SCF)C(C)CC2C3CC(F)C4=CC(=O)C=CC4(C)C3(F)C(O)CC21C` (stereo not drawn) [Fluticasone propionate] gave an NF-kB reporter of 1.07.
In the case of `CCCCC1(COC(=O)CCC(=O)O)C(=O)N(c2ccccc2)N(c2ccccc2)C1=O` [Suxibuzone], the NF-kB reporter is reported as 1.28.
For `CS(=O)(=O)Nc1cc2occ(NC=O)c(=O)c2cc1Oc1ccccc1` [Iguratimod], the NF-kB reporter was 1.38.
With `COc1cc2nccc(Oc3ccc(NC(=O)Nc4cc(C)on4)c(Cl)c3)c2cc1OC` [Tivozanib (AV-951)] the NF-kB reporter was 0.978.
In the case of `Cc1ccc(S(=O)(=O)O)cc1.NC(=O)c1cccc2cn(-c3ccc(C4CCCNC4)cc3)nc12` (stereo not drawn) [Niraparib (MK-4827) tosylate], the NF-kB reporter is reported as 1.05.
`CC(C)OC(=O)CCC/C=C\CC1C(O)CC(O)C1CCC(O)CCc1ccccc1` (stereo not drawn) [Latanoprost] gave an NF-kB reporter of 0.594.
`O=c1[nH]cc(F)c(=O)[nH]1` [Fluorouracil (5-Fluoracil, 5-FU)] gave an NF-kB reporter of 1.01.
Work on `CC1(C(=O)O)CCC2(C)CCC3(C)C(=CC(=O)C4C5(C)CCC(OC6OC(C(=O)O)C(O)C(O)C6OC6OC(C(=O)O)C(O)C(O)C6O)C(C)(C)C5CCC43C)C2C1.N.N` (stereo not drawn) [Diammonium Glycyrrhizinate] yielded an NF-kB reporter of 1.64.
`CC1(C)CCC(CN2CCN(c3ccc(C(=O)NS(=O)(=O)c4ccc(NCC5CCOCC5)c([N+](=O)[O-])c4)c(Oc4cnc5[nH]ccc5c4)c3)CC2)=C(c2ccc(Cl)cc2)C1` [Venetoclax (ABT-199, GDC-0199)] was tested, and the NF-kB reporter was 1.04.
`CCN(CC)Cc1cc(Nc2ccnc3cc(Cl)ccc23)ccc1O.Cl.Cl` [Amodiaquine hydrochloride] was tested, and the NF-kB reporter was 1.04.
For `CCN(C(=O)c1c(O)c2c(Cl)cccc2n(C)c1=O)c1ccccc1` [Laquinimod], the NF-kB reporter was 1.76.
Work on `O=C(c1ccc(OCCN2CCCCC2)cc1)c1c(-c2ccc(O)cc2)sc2cc(O)ccc12` [Raloxifene] yielded an NF-kB reporter of 0.966.
